Experimental data from the supplement of paper PMC3334620.
In all, about 33,000 sequences were measured (“E-score (-0.5 to 0.5)”: median about -0.056, highest 2% from about 0.38 on). The list shows a part of the results.

target: Stb4 (UniProt P50104); test: PBM E-score (8-mer binding enrichment) (E-score (-0.5 to 0.5)); higher = stronger / more preferred TF binding; most listed sequences are background and not binding sites; conditions: protein concentration: 200 nM; construct: GST-DNA-binding domain
Procedure, shortened: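 Bound GST-tagged yeast transcription factors, applied at about 100-200 nM to double-stranded universal all-10-mer Agilent arrays, were detected with fluorescent anti-GST. Scans were normalised with masliner. A modified Wilcoxon-Mann-Whitney statistic, the E-score, was assigned to each ungapped eight-base word pooled with its reverse complement by the Universal PBM Analysis Suite.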

| Sequence | PBM E-score |
| --- | --- |
| ACTGCCTG | -0.22 |
| ACGTGAAT | -0.147 |
| AACGTACG | -0.191 |
| GCGGCTAC | 0.169 |
| CGTCTACC | 0.0015 |
| AGCCGGAC | 0.239 |
| CGCAGGTA | -0.0206 |
| GGGGAGAA | 0.0293 |
| CGCCCCCC | -0.129 |
| CCGGTTAA | 0.334 |
| CGTTACTC | -0.0977 |
| GACCCGAC | 0.384 |
| TATCATGA | -0.145 |
| ACCTAGAA | -0.144 |
| ACCTTATA | -0.0931 |
| CCAAACGG | 0.0787 |
| GCCTTCCA | -0.24 |
| AATTGGCC | -0.0899 |
| ATTTATAC | 0.173 |
| ATATAGAG | -0.154 |
| ACCTCCTA | -0.155 |
| CAGAATCG | 0.194 |
| GCAGGATA | -0.241 |
| AGTTACAC | -0.0471 |
| AGTTGGAT | -0.0955 |

| Sequence | PBM E-score |
| --- | --- |
| CGACATAC | -0.0694 |
| GACGGCAC | 0.0854 |
| GTAAAGTA | -0.131 |
| CCAATGTA | -0.00695 |
| GCACGACC | -0.0299 |
| CAAGTGTC | -0.171 |
| AACCAGAG | -0.221 |
| AAGCGGGT | 0.168 |
| ATTCCCTC | -0.0926 |
| CCTTAAGA | -0.315 |
| GAACAGAA | 0.0155 |
| ACGTACTG | -0.241 |
| CCCGGGCG | 0.287 |
| CACGTAGG | -0.293 |
| CGGAATTC | 0.322 |
| CTTATTAC | -0.146 |
| ACCGTGCC | 0.0178 |
| TCAACAGA | 0.0285 |
| CGCAGTGC | -0.207 |
| AGCGAGAA | -0.105 |
| ACGTATCG | -0.117 |
| ACGTGCTC | -0.0136 |
| ACGGCTCA | 0.0829 |
| ATACTAAC | 0.0905 |
| CAGAAGCA | -0.184 |

| Sequence | PBM E-score |
| --- | --- |
| CTCGGCCA | 0.251 |
| AAAGTTTG | -0.048 |
| GCTCAGTA | -0.24 |
| ACGAGTAA | -0.0622 |
| ATACAGCG | -0.187 |
| CTTATAAC | 0.0116 |
| CTACCCAC | -0.117 |
| GATCACCC | 0.0178 |
| ACTGCTGG | -0.211 |
| CGTGCACC | -0.102 |
| ACCTACTG | -0.0984 |
| CTGCGAGA | -0.238 |
| ACAATTCA | -0.164 |
| ATGTATTC | 0.199 |
| ACACCTGC | -0.155 |
| TCCTGTAA | -0.212 |
| ACGTAAGA | -0.178 |
| GACTCGAA | 0.0374 |
| TAATTCAA | 0.00504 |
| CTGTCGCC | -0.0279 |
| GCGAGTCC | -0.0651 |
| ATCGGGCC | 0.274 |
| AATCAACA | -0.0365 |
| CTTGAGCC | -0.00056 |
| GAGCTCTA | -0.147 |

| Sequence | PBM E-score |
| --- | --- |
| CGCCTGGA | -0.131 |
| CTGTCAAA | -0.136 |
| ATAGGCAT | -0.0616 |
| ACTACTAT | -0.055 |
| GTCACACA | -0.0169 |
| GATGGCGC | -0.0995 |
| CGTGGATC | -0.116 |
| GGCAATAC | 0.205 |
| CGAGACCG | 0.28 |
| GCCTTCGA | -0.237 |
| CCATCCCG | 0.214 |
| AAAAGATA | -0.0815 |
| CTTATCCA | 0.0242 |
| ACCATGGC | -0.0659 |
| GATTTGCA | -0.0581 |
| AACTCCTG | -0.111 |
| AACCGATA | 0.227 |
| TATCTCAA | -0.0915 |
| ACATCTAG | -0.213 |
| CTTCATAC | -0.103 |
| ATCAACAC | -0.101 |
| CCGTGCGA | 0.17 |
| CTGAAAGA | -0.0709 |
| TCTAGACA | -0.152 |
| AAGCAGAC | -0.0699 |

| Sequence | PBM E-score |
| --- | --- |
| AGTGGAAA | -0.075 |
| GTGCTTTA | -0.191 |
| CCTTTGCC | 0.0171 |
| AATTCGTA | 0.0882 |
| GAGAGCGA | -0.115 |
| CACACATG | -0.15 |
| GGTGTGAA | 0.102 |
| ACATTAGA | -0.113 |
| CCTAATAG | -0.0578 |
| CGTTGCAG | -0.168 |
| AATGGCGA | -0.0861 |
| ACACCGTG | 0.106 |
| CCGGTTGC | 0.316 |
| AAATGGGA | -0.275 |
| CAAATTGG | -0.104 |
| AGACGGCC | 0.0725 |
| GCGAAAAA | 0.0144 |
| CATCTAAG | 0.00761 |
| AGACCTAC | -0.172 |
| CACTTTGG | -0.178 |
| TCGATAAA | 0.0308 |
| GCCTTCAC | -0.121 |
| AGGGGTTA | -0.0368 |
| GGCTTGAA | -0.103 |
| CCAACCCG | 0.185 |

| Sequence | PBM E-score |
| --- | --- |
| GGTTTTAA | 0.126 |
| AACATGCA | -0.288 |
| AGACCCTG | -0.254 |
| TAATCGAA | -0.0737 |
| CCTAGCTC | 0.0275 |
| CAAGATGG | -0.192 |
| CCACTGCA | -0.135 |
| CATCTGCG | -0.0456 |
| CGTTTTGA | -0.149 |
| AGTTGAAA | -0.00168 |
| CCGACAAG | 0.251 |
| CCCTCTCC | -0.0948 |
| ATATGTGA | -0.301 |
| CCAGTGGA | -0.138 |
| CTCCGGGA | 0.313 |
| AGATGCGA | -0.0599 |
| CCAAGAGA | -0.132 |
| GAGTAATA | 0.106 |
| ACATTACT | -0.154 |
| CCATTAAC | -0.192 |
| AGACTCTC | -0.0419 |
| TCGTGGAA | -0.0505 |
| CGAGATTA | 0.263 |
| AAGAAGCC | 0.206 |
| CTTCACAC | -0.108 |

| Sequence | PBM E-score |
| --- | --- |
| ATAGTAGG | -0.0248 |
| AGGTTCAA | -0.0583 |
| TACCTAAA | -0.0909 |
| GGGCGGAC | 0.224 |
| CTGTGCGC | 0.0675 |
| ATAACTGA | -0.0497 |
| TGGCACAA | -0.192 |
| GTTGAAAC | 0.0717 |
| GGGCTTTA | -0.219 |
| CACTTGTC | 0.135 |
| ACGCTGAA | 0.0244 |
| TAACTCCA | -0.134 |
| GCGCCTCC | -0.105 |
| CTAGCCGA | 0.455 |
| CTTATGGC | -0.154 |
| GTCCAACA | -0.108 |
| AAGACCGT | -0.0619 |
| AGTCCCGA | 0.389 |
| CTCGCTGC | -0.0906 |
| AACGTCAT | -0.108 |
| AGTTAGGC | -0.188 |
| AGCATCAA | -0.15 |
